# Test results reported in ChEMBL document CHEMBL4888484, “Replenishing the malaria drug discovery pipeline: Screening and hit evaluation of the MMV Hit Generation Library 1 (HGL1) against asexual blood stage Plasmodium falciparum ,using a nano luciferase reporter read-out” (2022).
# About 540 (0.36%) of roughly 150,000 compounds showed an effect of 50% or more. The list shows a part of the results.
# System: Plasmodium falciparum
# Assay: Primary screen in NF54 nanoGlo assay, in single point, at 2uM, 72h; a lower Z score goes with more inhibition
# Assay type: functional, Erythrocyte
# Settings: timepoint 72 hour
SMILES,% Inhibition,Z score
CC1CN(C(C#N)c2ccco2)CCO1 (stereo not given),-11%,1.47
CCOC(=O)N1CCC(NC(=O)[C@H]2CC23CCN(Cc2ccc(O)c(OCC)c2)CC3)CC1,-6%,0.73
CCN(CC)C(=O)N(C)Cc1ccccc1,5%,-0.91
CC[C@H](C)NCC(=O)Nc1ccc(F)cc1,-36%,4.27
CC(C)(C)c1ccc(S(=O)(=O)Nc2cccc3c2C(=O)NC3)s1,-7%,0.98
CCNC(=O)N1CC[C@H](NC(=O)c2ccc(C)c3c2CCC3)C1,-3%,0.48
Cc1ccc(N2CCN(CCn3cnnc3)[C@@H](C)C2)cc1,3%,-0.64
Cc1cc(-c2nc(C)nn2-c2ccc(F)cc2)[nH]n1,-16%,2.09
N#Cc1ccccc1NC(=O)Cn1nc(C2CC2)cc1C(F)F,-42%,4.9
CC(C)CN1C[C@H](CNC(=O)c2cnn(C)c2)OCC1=O,-17%,2.21
CC1OCCCC1C(=O)NCc1ncoc1-c1ccccc1 (stereo not given),-9%,1.56
Cc1oncc1NC(=O)C1CCC(F)(F)CC1,-6%,0.73
CC1CCN(c2ncnc(Oc3ccc4c(c3)OCO4)c2N)CC1,-4%,0.83
O=C(CN1CCC(N2C[C@H](COc3ccc(F)cc3)OCC2=O)CC1)NC1CC1,0%,-0.01
CCOC(=O)N1CCC(Nc2cncc(Br)c2)CC1,-6%,0.49
Cc1cc(CNc2ncc(C(=O)N3CCCCC3)cc2Cl)cc(C)n1,2%,-0.35
CC1CCCC(CCNS(=O)(=O)N2CC(C)OC(C)C2)C1 (stereo not given),-10%,0.87
COc1cc2c(nn1)CCN(Cc1nccn1Cc1ccccc1)C2,8%,-1.08
Cc1ccccc1[C@H]1CN(C(=O)CCc2ccncc2)C[C@@H]1C(=O)O,-12%,1.19
Cc1nc(-n2cnnc2)ccc1-c1cc[nH]n1,0%,-0.03
COc1cccc(C(=O)Nc2sc(-c3ccccc3)c(C)c2C(=O)N2CCOCC2)c1,0%,-0.09
O=C(Cc1cccs1)NCC[C@H](O)c1cccs1,-3%,0.38
CCn1ccnc1-c1nc2c([nH]1)C[C@H](c1cccc(OC)c1)CNC2=O,-9%,1.47
O=C(CC1CCN(C(=O)c2cc3ccccc3[nH]2)CC1)NCc1ccc(Cl)cc1,8%,-1.26
Cc1cc(C2CC(C(=O)NC3CC3)CN(C(=O)NC(C)C)C2)ccc1F (stereo not given),-11%,1.63
